# About 2,200 (0.71%) of roughly 310,000 compounds showed an effect of 50% or more. The effect is printed as a negative number. The list shows a part of the results.
# Molecular target: human ether-à-go-go-related gene (hERG) potassium channel (human, UniProt Q12809)
# Test: primary screen, population patch clamp on CHO cells stably expressing hERG
# Sequence of human ether-à-go-go-related gene (hERG) potassium channel (Q12809 whole entry, looked up): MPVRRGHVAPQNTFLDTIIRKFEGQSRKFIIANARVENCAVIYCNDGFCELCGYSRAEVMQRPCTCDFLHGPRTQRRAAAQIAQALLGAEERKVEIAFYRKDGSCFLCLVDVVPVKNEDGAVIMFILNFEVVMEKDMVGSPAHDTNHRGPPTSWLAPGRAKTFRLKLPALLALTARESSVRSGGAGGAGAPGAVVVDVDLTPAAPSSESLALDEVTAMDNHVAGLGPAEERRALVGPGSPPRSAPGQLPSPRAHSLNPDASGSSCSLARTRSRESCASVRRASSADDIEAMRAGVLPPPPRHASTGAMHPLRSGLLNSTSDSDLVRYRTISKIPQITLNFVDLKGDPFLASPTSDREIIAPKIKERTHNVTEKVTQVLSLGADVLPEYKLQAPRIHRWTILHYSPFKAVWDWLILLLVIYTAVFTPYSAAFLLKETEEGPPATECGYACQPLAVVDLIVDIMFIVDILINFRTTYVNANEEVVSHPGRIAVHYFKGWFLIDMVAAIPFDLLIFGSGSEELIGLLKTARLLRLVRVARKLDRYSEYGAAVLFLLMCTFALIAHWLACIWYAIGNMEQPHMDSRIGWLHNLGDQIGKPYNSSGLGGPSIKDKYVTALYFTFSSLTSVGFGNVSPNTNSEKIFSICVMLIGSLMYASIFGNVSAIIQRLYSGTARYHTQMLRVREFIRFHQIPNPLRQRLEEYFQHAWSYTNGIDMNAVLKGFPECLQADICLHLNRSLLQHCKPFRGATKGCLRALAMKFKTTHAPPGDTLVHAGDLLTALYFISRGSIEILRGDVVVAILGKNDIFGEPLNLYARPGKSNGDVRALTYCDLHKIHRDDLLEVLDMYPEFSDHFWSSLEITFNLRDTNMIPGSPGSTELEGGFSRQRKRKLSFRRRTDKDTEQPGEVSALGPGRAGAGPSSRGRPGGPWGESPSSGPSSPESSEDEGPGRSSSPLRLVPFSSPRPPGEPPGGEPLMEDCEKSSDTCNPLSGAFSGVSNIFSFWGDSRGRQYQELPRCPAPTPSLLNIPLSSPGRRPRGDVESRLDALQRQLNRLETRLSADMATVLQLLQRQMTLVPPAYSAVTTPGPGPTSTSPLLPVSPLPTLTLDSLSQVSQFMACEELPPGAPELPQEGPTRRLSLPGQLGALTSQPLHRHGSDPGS
row,Structure (SMILES),"hERG current change (%, negative = inhibition) at 1uM"
1,COc1cc(/C=C/C(=O)OCC(=O)NC(=O)NC(C)(C)C)cc(OC)c1OC,13.4%
2,O=C(C1CCC(CNS(=O)(=O)c2cccc3nsnc23)CC1)N1CCN(c2ccccn2)CC1 (centres unmarked),-4.83%
3,CSc1ccccc1C(=O)C1CCCN(S(=O)(=O)N(C)C)C1 (centres unmarked),3.79%
4,C/C=C(\C)CN1CCCC(CO)(Cc2ccccc2)C1 (centres unmarked),4.42%
5,O=C(NC1CCCCC1)C(c1ccccn1)N(C(=O)c1csnn1)c1ccccc1 (centres unmarked),4.98%
6,CCCCOc1ccc(NC(=O)c2cnc(C)cn2)cc1,5.98%
7,Nc1cc(=O)[nH]c(N2CCN(c3ccccc3)CC2)n1,19.2%
8,CCCCOc1ccc(C(=O)Nc2cccc(C)n2)cc1,3.16%
9,N#C/C(=C/c1ccco1)c1nc2ccccc2s1,12.7%
10,CC(=O)Nc1ccc(Br)c(Cl)c1,12.6%
11,Cc1cc(C)cc(NC(=O)CSc2cc(C(=O)c3nccn3C)c3ccccc3n2)c1,3.89%
12,COc1cccc(CNC(=O)CCC2CCCN(C(=O)c3ccoc3C)C2)c1 (centres unmarked),5.59%
13,CCC(C)Nc1nc(-c2ccccn2)nc2ccccc12 (centres unmarked),-11.6%
14,Nc1nnc(CC(=O)N/N=C/c2ccc(-c3ccc(F)cc3)o2)s1,8.53%
15,O=C(Nc1nnc(-c2ccncc2)o1)c1ccc2ccccc2c1,6.83%
16,CCCCCOC(=O)NCCOC(=O)Nc1ccc(C(=O)OCC)cc1,12.9%
17,CS(=O)(=O)c1ccc(Cl)c(NC(=O)c2ccc3ccccc3c2)c1,4.44%
18,CCCCOc1cccc(C(=O)Nc2ccccc2N2CCCC2)c1,13.1%
19,Cc1ccc(NC(=O)CSc2nnc(CNC(=O)c3ccco3)o2)cc1,16.7%
20,CCCCOc1ccc(N2C(=O)CC(N(CCc3ccccc3)C(=O)/C=C/C(=O)O)C2=O)cc1 (centres unmarked),14.4%

row,Structure (SMILES),"hERG current change (%, negative = inhibition) at 1uM"
1,CC(=O)Nc1ccc(S(=O)(=O)NC2CCCCCC2)cc1,15.8%
2,Cc1cc(C)n(-c2ccc(C(=O)NC(C)C)cc2)n1,-4.87%
3,C[n+]1cn(/N=C/c2ccccc2)c2ccccc21.[I-],7.04%
4,CC(NC(=O)Nc1ccc(F)cc1)c1ccc2c(c1)OCO2 (centres unmarked),17.1%
5,Cc1ccc(NC(=O)c2noc3c2CC(C(C)(C)C)CC3)cc1 (centres unmarked),11.7%
6,COC(=O)Cn1c2ccc(OC)cc2c2nc(C)sc21,9.67%
7,O=c1c2c([N+](=O)[O-])cc([N+](=O)[O-])cc2sn1-c1ccc(Br)cc1,12.6%
8,Cc1ccc(N=c2c([N+](=O)[O-])nn(-c3ccc(Cl)cc3)n2O)cc1C,9.06%
9,O=S(=O)(/C=C/c1cccc(Br)c1)N1CCOCC1,11.7%
10,CC1(C)Cc2c(cnn2-c2ccccc2)C(NC(=O)CCCn2cncn2)C1 (centres unmarked),8.8%
11,Cc1c(/C=N\NC(=O)C2COc3ccc(C(C)(C)C)cc3O2)c2ccccc2n1C (centres unmarked),17.5%
12,O=C(NC1CCCCC1)c1ccc(S(=O)(=O)N2CCCC2)cc1,7.18%
13,CC(C)CC(c1nnnn1C1CCCC1)N1CCC(C(N)=O)CC1 (centres unmarked),15.6%
14,COc1ccc(NC(=O)Nc2nccs2)cc1,-4.33%
15,Cc1ccccc1-c1ocnc1C(=O)Nc1ccccc1NC(=O)c1ccccn1,15.2%
16,O=c1c2ccccc2nc(-c2ccco2)n1-c1nc2ccccc2s1,10.6%
17,C/C(=N\NC(=O)C1CC1)c1cccc(NC(=O)c2cccc(Cl)c2)c1,13.8%
18,CC(=O)NC12CC3CC(C1)CC(C(=O)N(C)CC(=O)Nc1ccccc1Cl)(C3)C2,-3.96%
19,O=C(Nc1ccccc1)NC1CC2CCC(C1)N2Cc1nnnn1Cc1ccc2c(c1)OCO2 (centres unmarked),3.29%
20,CCn1c(CNC(=O)c2cccc(C)c2)nc2ccccc21,9.03%

row,Structure (SMILES),"hERG current change (%, negative = inhibition) at 1uM"
1,O=C(CSc1nc(=O)n(CCN2CCOCC2)c2c1CCCC2)Nc1ccc(F)cc1F,0.18%
2,Cc1ccc(S(=O)(=O)N2CCOC2CNC(=O)C(=O)NCc2ccco2)cc1 (centres unmarked),9.8%
3,COc1ccc(CN2C(=O)CSC2c2ccncc2)cc1 (centres unmarked),9.92%
4,OCCCc1nc2ccccc2n1CCCCOc1ccccc1,-23.9%
5,CN(C)CCCNCCCNC(=O)/C=N/O,3.26%
6,O=C1O/C(=C/C(=O)N2CCOCC2)c2ccccc21,10.5%
7,COc1cc2c(cc1OC)-c1cc(NC3CCCCCCC3)nc(=O)n1CC2,6.28%
8,Cc1cc(C)c(NC(=O)CS(=O)CC(=O)N2CCN(c3ccc(F)cc3)CC2)c(C)c1 (centres unmarked),-15.6%
9,CCN(CC)N=Nc1cccc(NC(C)=O)c1,8.84%
10,O=C(NNc1nc2cc3c(cc2s1)OCCO3)c1ccccc1,2.27%
11,O=P(OCC(F)(F)C(F)F)(N1CCOCC1)N1CCOCC1,-1.74%
12,COc1ccc(CCC(=O)Nc2ccc(OC)c(S(=O)(=O)N3CCCCC3)c2)cc1,-7.4%
13,CCOc1ccc(-n2c(N)c(C(=O)N3CCN(C)CC3)sc2=S)cc1,3.05%
14,CC1=NN(c2ccccc2)C(=O)/C1=C/N(C)C,9.48%
15,COc1ccc(NC(=O)C2CCN(C(=O)c3ccccc3)CC2)cc1OC,-4.01%
16,CC1CN(C(=O)/C(=C/c2ccco2)NC(=O)c2ccccc2)CC(C)O1 (centres unmarked),16.7%
17,Cc1ccc(NC(=O)CCc2c(C)nc3ncnn3c2C)nc1,7.07%
18,Cc1oc(-c2cccc(Cl)c2)nc1CSCC(=O)O,14.6%
19,CCCc1cc(NCCCO)n2c(nc3ccccc32)c1C#N,10.7%
